From article PMC4336329 (PLoS ONE, 2015)
Hit rate of the full screen: of about 310,000 compounds, about 2,200 (0.71%) showed an effect of 50% or more. Effects have a minus sign here. Some of the results follow.

The molecules below were run against human ether-à-go-go-related gene (hERG) potassium channel (human, UniProt Q12809) (assay: primary screen, population patch clamp on CHO cells stably expressing hERG).
human ether-à-go-go-related gene (hERG) potassium channel, sequence (Q12809 whole entry, looked up): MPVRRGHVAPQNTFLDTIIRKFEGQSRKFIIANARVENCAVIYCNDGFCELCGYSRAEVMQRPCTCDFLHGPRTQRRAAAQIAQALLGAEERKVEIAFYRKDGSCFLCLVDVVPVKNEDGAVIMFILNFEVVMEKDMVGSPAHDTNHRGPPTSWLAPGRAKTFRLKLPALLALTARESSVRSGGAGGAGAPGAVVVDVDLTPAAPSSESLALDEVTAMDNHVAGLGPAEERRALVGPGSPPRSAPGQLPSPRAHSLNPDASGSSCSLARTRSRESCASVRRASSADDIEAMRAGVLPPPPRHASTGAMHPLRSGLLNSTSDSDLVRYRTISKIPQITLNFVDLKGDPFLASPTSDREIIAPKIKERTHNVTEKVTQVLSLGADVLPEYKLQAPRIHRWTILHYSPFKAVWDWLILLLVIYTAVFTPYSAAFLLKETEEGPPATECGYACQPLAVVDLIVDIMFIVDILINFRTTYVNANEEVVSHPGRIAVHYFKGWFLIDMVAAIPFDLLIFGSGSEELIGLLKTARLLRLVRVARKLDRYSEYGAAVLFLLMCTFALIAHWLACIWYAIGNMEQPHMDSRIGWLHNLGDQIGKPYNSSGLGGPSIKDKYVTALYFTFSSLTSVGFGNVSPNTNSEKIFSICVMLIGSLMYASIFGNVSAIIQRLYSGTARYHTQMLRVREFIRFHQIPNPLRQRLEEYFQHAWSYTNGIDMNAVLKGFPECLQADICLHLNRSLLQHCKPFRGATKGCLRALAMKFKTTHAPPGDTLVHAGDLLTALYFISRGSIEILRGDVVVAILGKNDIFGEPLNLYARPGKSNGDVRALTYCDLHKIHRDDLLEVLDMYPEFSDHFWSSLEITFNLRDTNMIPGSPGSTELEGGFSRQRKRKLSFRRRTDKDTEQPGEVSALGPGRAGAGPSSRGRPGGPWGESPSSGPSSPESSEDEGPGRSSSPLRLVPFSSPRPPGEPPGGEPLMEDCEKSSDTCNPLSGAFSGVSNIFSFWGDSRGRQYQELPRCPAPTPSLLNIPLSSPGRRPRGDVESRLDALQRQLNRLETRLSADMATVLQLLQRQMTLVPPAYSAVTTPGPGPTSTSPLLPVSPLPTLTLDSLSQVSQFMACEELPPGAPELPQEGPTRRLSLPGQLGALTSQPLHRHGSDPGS

In order of falling “hERG current change (%, negative = inhibition) at 1uM” value:
1. CCOc1ccc(CN2CCNC(=O)C2CC(=O)NCCCOc2cccnc2)cc1 (centres unmarked)  22%
2. COC(=O)c1cc(COc2ccc3ccc(=O)oc3c2)c(C)o1  21.5%
3. O=C(CN1C(=O)c2ccccc2C1=O)Nc1ccc(S(=O)(=O)NCC2CCCO2)cc1 (centres unmarked)  20.2%
4. O=C1N[C@H](Cc2ccccc2)C(=O)N[C@H]1Cc1cn(S(=O)(=O)c2ccccc2)c2ccccc12  19%
5. Cc1ccc(/C=N/NC(=O)CNC(=O)COc2ccccc2)cc1  19%
6. CCCNC(=S)Nc1ccc(S(N)(=O)=O)cc1  17.2%
7. O=C(NC1CC1)C1CCN(C(=O)c2ccc(Cl)cc2)CC1  17%
8. NC(=O)c1ccc2c(=O)c(O)c(-c3cc(Cl)c(N)c(Cl)c3)[nH]c2c1  16.1%
9. Cc1cc(C(=O)COC(=O)c2n[nH]c3ccccc23)c(C)n1C  15.6%
10. O=S(=O)(Nc1nc2ccccc2nc1Cl)c1ccccc1  15.6%
11. CCOc1ccc(-c2cn(CCC#N)cn2)cc1  15.4%
12. NNC(=O)CSc1c(-c2ccccc2)c2cc(Cl)ccc2[nH]c1=O  15.2%
13. Cc1ccc(N2C(=O)C3C4C=CC(CNC(=S)N5CCN(c6ccccc6)CC5)(O4)C3C2=O)cc1 (centres unmarked)  15.2%
14. COc1cc(C2C(C(=O)c3ccc(C)o3)=C(O)C(=O)N2c2cc(C)on2)cc(Br)c1O (centres unmarked)  14.8%
15. COc1ccc(OC)c(S(=O)(=O)Nc2ccc3c(c2)C(=O)OC3)c1  14.5%
16. CCCc1cc(=O)n2[nH]c(NCc3ccccc3F)nc2n1  14%
17. COc1ccccc1NS(=O)(=O)c1cc(NC(=O)c2ccccc2F)ccc1N1CCOCC1  13.9%
18. CCOc1cc(C2NC(=O)NC(C)=C2C(=O)OCC2CCCCC2)ccc1O (centres unmarked)  13.8%
19. COc1cc(CNC2CCCCCCC2)c(Br)cc1OCCO.Cl  13.3%
20. COc1ccccc1Nc1ncc(C(=O)Nc2ccc(OC)c(OC)c2)c2ccccc12  13.1%
21. COCCCNc1nc2nonc2nc1N1CCN(Cc2cccc(C)c2)CC1  12.5%
22. O=C(O)Cn1cc(/C=C2/NC(=O)N(c3ccc(Cl)cc3)C2=O)c2ccccc21  12.3%
23. COc1cccc(-n2nc(-c3ccnn3-c3ccc(F)cc3)c(=O)n(C)c2=O)c1  11.5%
24. Cc1ccc(S(=O)(=O)NCC2CCC(C(=O)NCCCN3CCCC3=O)CC2)cc1 (centres unmarked)  11.2%
25. CC1CCN(C(=S)NC(=O)c2cccs2)CC1  11.1%
26. Cc1ccc(O)c(NC(=O)c2cc(-c3cccs3)on2)c1  11%
27. CN(C)C=Nc1ccc(Cl)c(Cl)c1  10.5%
28. CCN(CC)c1ccc(/C=N/N2CCN(Cc3ccccc3)CC2)cc1  10.4%
29. Cc1cc(C)cc(NC(=O)C2CCN(S(C)(=O)=O)CC2)c1  10%
30. COC(=O)COc1cccc2c(=O)n(CC(=O)NCCc3ccc(OC)c(OC)c3)ccc12  9.77%
31. CN(C)S(=O)(=O)c1cccc(NC(=O)c2cc(-c3cccs3)nc3ccccc23)c1  9.76%
32. COc1cc(C(=O)OCC(=O)Nc2c(F)cccc2F)cc(OC)c1C  9.64%
33. O=C(NCCC(=O)N1CCCCC1)c1ccc(Br)cc1  8.65%
34. Cc1cccc(NCc2nc3ccccc3n2C)c1  8.64%
35. O=C(c1cccc(F)c1)N1CCN(C(=O)c2cc(-c3ccc(Cl)cc3Cl)on2)CC1  8.3%
36. O=C(NNC(=O)c1ccccc1O)c1ccc(Cl)cc1  8.29%
37. Cc1nc2cc(NC(=O)c3ccco3)ccc2n1C  8.23%
38. CC1CCN(C(=O)CCc2nnc3ccc(NCc4ccco4)nn23)CC1  7.5%
39. O=C(COC(=O)CCC(=O)c1cccs1)Nc1ccc(Cl)cn1  7.14%
40. CC(=O)NC(c1ccccc1)c1cccnc1 (centres unmarked)  7.08%
41. COc1cc(C(=O)N/N=C(\C)c2ccc3c(c2)OCO3)cc(OC)c1OC  7.07%
42. O=C(c1cc2ccccc2o1)N1CCN(S(=O)(=O)c2cccs2)CC1  6.76%
43. N#Cc1nc(-c2ccc(Cl)cc2)oc1NCCc1ccccn1  6.75%
44. CCOc1cc(/C=C(/C#N)c2ccc(F)cc2)ccc1OCc1ccc(C(=O)O)o1  6.6%
45. CC(C)(C)c1cc(C(=O)N2CCc3ccccc32)ccn1  6.46%
46. Cc1ccc(CN2CCCN(Cc3ccc(C)cc3)S2(=O)=O)cc1  6.4%
47. CCOC(=O)C1=C(N)OC(C)=C(C#N)C1c1ccco1 (centres unmarked)  6.22%
48. Cc1c(C)c(C)c(S(=O)(=O)NCCc2ccncc2)c(C)c1C  5.94%
49. CCN(CC(=O)Nc1ccc(OC)cc1)C(=O)c1cc([N+](=O)[O-])ccc1N1CCOCC1  5.86%
50. CCOc1ccc(CCNS(=O)(=O)c2ccc3c(c2)N(C(C)=O)CCO3)cc1OCC  5.82%
51. O=C(NCCOc1ccccc1Cl)C(=O)NCCOc1ccccc1Cl  5.53%
52. COc1ccccc1-c1nnc(NC(=O)c2ccc3ncsc3c2)o1  5.51%
53. CC(=O)Nc1ccc(S(=O)(=O)N(CC(=O)Nc2cc(C)on2)Cc2ccc(F)cc2)cc1  5.22%
54. CCn1c(-c2ccco2)n[nH]c1=S  4.92%
55. COc1ccc(Cl)cc1C(=O)OCC(=O)NCc1cccs1  4.83%
56. CN(C)S(=O)(=O)N1CCC(Oc2cccc(C(=O)NCCC3=CCCCC3)c2)CC1  4.72%
57. CC1(C)C2CCC1(CS(=O)(=O)NC1CCCC1)C(=O)C2 (centres unmarked)  4.52%
58. Cc1ccc(CNC(=O)C(=O)NCC2OCCN2C(=O)c2ccc3c(c2)OCO3)cc1 (centres unmarked)  4.48%
59. CC(=O)c1cccc(NC(=O)CN(c2ccc(C)cc2)S(=O)(=O)c2cccc3nonc23)c1  4.37%
60. CCCCn1c(N)c(N(Cc2ccccc2OC)C(=O)COc2ccc(C)cc2)c(=O)[nH]c1=O  4.26%
61. Cc1ccc(C(=O)NCC(=O)N/N=C/c2cccs2)cc1[N+](=O)[O-]  3.54%
62. COc1cc(OC)cc(C(=O)N[C@H](C(=O)OCn2nnc3ccccc3c2=O)C(C)C)c1  3.47%
63. CCN1CCCC1CNC(=O)c1ccc2c(c1)N(Cc1ccccc1F)C(=O)c1ccccc1S2(=O)=O (centres unmarked)  3.43%
64. CCOC(=O)c1c(C)c(C(=O)Nc2ccc3c(c2)OCO3)c(C)n1C  3.25%
65. Cc1ccc(-c2nc3c(c(=O)[nH]c(=O)n3Cc3ccccc3)n2C)s1  3.08%
66. Cc1cc2c(ncn2Cc2ccccc2)c([N+](=O)[O-])c1C  2.99%
67. CC(=O)N1CCc2cc(S(=O)(=O)Nc3cccc(C(F)(F)F)c3)ccc21  2.7%
68. COc1ccc(NC(=O)CSc2ncccn2)cc1S(=O)(=O)N1CCCCC1  2.37%
69. O=C(N/N=C/c1cc(Cl)ccc1O)c1ccncc1  2.23%
70. COc1ccc(N2CCN(C(=O)CCS(=O)(=O)c3ccc(OC)cc3)CC2)cc1  2.17%
71. O=C(Nc1ccc2c(c1)OCO2)c1cnc2n(c1=O)CCS2  1.77%
72. Cn1c(=O)c2[nH]c(SCc3ccccn3)nc2n(C)c1=S  0.955%
73. CC1(C)CNC(=O)c2sc(NC(=O)CN3CCOCC3)nc2C1  -0.583%
74. O=C(NCc1ccncc1)c1ccccc1Nc1ccc(SC(F)F)cc1  -1.38%
75. Cc1ccc(NNC(=S)Nc2ccc(C(C)C)cc2)c(C)c1  -2.02%
76. O=S(=O)(c1ccc(S(=O)(=O)N2CCCC3(CCCCC3)C2)cc1)N1CCCCC1  -3.24%
77. COCCCn1cc(C(=O)c2ccccc2OCC(=O)Nc2cccc(F)c2)cc(C#N)c1=O  -5.53%
78. O=[N+]([O-])c1ccccc1/C=C\C=N\N1CCN(c2ccccc2)CC1  -7.95%
79. CCn1cc(C(=O)NCC(C)C)c(=O)c2cc(F)c(N3CCN(C(=O)c4ccco4)CC3)cc21  -8.13%
80. CCOC(=O)c1c(NC(=O)c2ccc(Br)o2)sc2c1CCCC2  -9.54%
81. CCOc1ccc2oc(C(=O)N(C)CC(=O)Nc3ccc(OCC)c(OCC)c3)c(C)c2c1  -10.6%
82. CCc1ccc(NC(=O)CSc2nc3ccccc3nc2N2CCCCC2)cc1  -12.3%
83. Cc1ccc(-n2nc3c(N4CCC(C(=O)N5CCCCCC5)CC4)nnc(C)c3c2C)cc1  -13.5%
84. COc1ccc(CNC(=O)CN(Cc2ccccc2)S(=O)(=O)c2ccc(Cl)cc2)cc1  -15.2%
85. CCN(CC)CCNC(=O)c1cc(-c2cccnc2)nc2ccc(S(=O)(=O)N3CCC(C)CC3)cc12  -23.5%
86. N#CCCN1CCN(C(=S)c2ccc(-c3cccc(Cl)c3)o2)CC1  -36.1%
